Results from the supplement of paper PMC5895741.

B1: MS2 coat protein; the commonest letter at each place (parent)
chain: MASNFTQFVLVDNGGTGDVTVAPSNFANGVAEWISSNSRSQAYKVTCSVRQSSAQNRKYTIKVEVPKVATQTVGGVELPVAAWRSYLNMELTIPIFATNSDCELIVKAMQGLLKDGNPIPSAIAANSGIY

Variants of: B1
Assay: apparent fitness score (VLP assembly selection enrichment vs plasmid library) (log10 ratio); higher = better expression / assembly into well-formed VLPs
Method: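 SyMAPS: NNK codon saturation mutagenesis of every codon of the MS2 bacteriophage coat protein (EMPIRIC cloning), expressed overnight in E. coli DH10B at 37 °C. Assembled VLPs were selected by ammonium sulfate precipitation plus FPLC size-exclusion chromatography, and the encapsidated RNA was sequenced. Apparent fitness score = log10 of the mean over 3 biological replicates of (percent abundance in the VLP library / percent abundance in the plasmid library). Variants absent after selection were set to 0.0001, i.e. -4.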
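Note: counts from Illumina MiSeq reads, cDNA of packaged RNA versus plasmid DNA taken before selection, each replicate independent from library construction onward, expression induced with 0.1% arabinose.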

| Variant | apparent fitness score (log10) |
| --- | --- |
| L104Q | 0.508 |
| S85L | -0.72 |
| S85T | -0.823 |
| S85Y | -0.999 |
| R84V | -1.1 |
| R84H | -0.428 |
| Q7H | 0.93 |
| Q7K | 0.773 |
| Q7P | 0.2 |
| Q55Y | -0.585 |
| Q55V | 0.376 |
| L112V | 0.899 |
| L112W | < -4 |
| L112R | -0.948 |
| T20W | 0.835 |
| T20G | -0.885 |
| K58I | < -4 |
| K58C | -0.26 |
| K58M | 0.367 |
| A22K | 0.226 |
| A22R | 0.283 |
| A22F | -1.39 |
| A22Y | -0.802 |
| A22P | -1.15 |

| Variant | apparent fitness score (log10) |
| --- | --- |
| V80M | -0.0906 |
| V80Y | -0.529 |
| L10F | -1.15 |
| L10H | < -4 |
| L10Q | < -4 |
| L10D | < -4 |
| I105Y | < -4 |
| I105R | < -4 |
| I105L | -0.0445 |
| I105A | < -4 |
| L91K | < -4 |
| L91A | -1.08 |
| N28W | < -4 |
| K114S | 0.546 |
| K114D | < -4 |
| K114P | < -4 |
| V73P | -0.132 |
| V73F | 0.433 |
| N4G | -0.732 |
| F26W | < -4 |
| F26I | -0.845 |
| F26N | 0.376 |
| F26A | -1.39 |
| V68M | 1.8e-05 |

| Variant | apparent fitness score (log10) |
| --- | --- |
| V68Y | -0.191 |
| V68E | 0.491 |
| V68H | -0.0413 |
| V68K | 0.615 |
| V68R | 0.353 |
| Y86Q | < -4 |
| S40R | -1.5 |
| S40K | < -4 |
| S40W | -1.6 |
| T98F | -1.52 |
| T98H | -0.465 |
| T98V | -1.06 |
| Y59F | -0.838 |
| Y59N | -1.57 |
| S35K | -0.0774 |
| S35F | < -4 |
| S35L | -1.31 |
| E32C | -0.982 |
| E32V | -1.09 |
| E32M | < -4 |
| P23A | < -4 |
| P23M | -0.786 |
| T6D | 0.999 |
| T6F | -1.09 |

| Variant | apparent fitness score (log10) |
| --- | --- |
| T6M | -0.786 |
| T6Q | 0.812 |
| A27L | 0.168 |
| I61F | -0.916 |
| I61W | < -4 |
| I61R | -1.66 |
| V11S | -1.46 |
| V11Y | < -4 |
| V11L | -2.08 |
| V11Q | -1.42 |
| T60S | 0.366 |
| T60R | 0.767 |
| T60M | 0.551 |
| T60W | 0.77 |
| S3I | -0.434 |
| S3P | -0.483 |
| S3A | 0.439 |
| A97R | -1.01 |
| A97L | < -4 |
| A97S | -0.369 |
| A97N | < -4 |
| R39I | < -4 |
| F8D | -0.419 |
| F8E | -1.39 |

| Variant | apparent fitness score (log10) |
| --- | --- |
| F8M | -0.459 |
| F8N | -0.203 |
| F8Y | -0.477 |
| F8H | -0.481 |
| D101L | -1.5 |
| W83D | < -4 |
| W83S | -1.23 |
| W83A | < -4 |
| W83N | < -4 |
| I129T | < -4 |
| V45T | < -4 |
| G17H | 0.422 |
| G17F | -0.684 |
| Q71K | 0.381 |
| Q71M | -0.0156 |
| Q71D | -0.62 |
| Q71E | -0.585 |
| A124Y | -1.41 |
| A124V | -0.488 |
| A124C | 0.585 |
| A124Q | 0.215 |
| A124L | -1.77 |
| T70S | 0.356 |
| T70P | -0.828 |

| Variant | apparent fitness score (log10) |
| --- | --- |
| L87Y | < -4 |
| L87P | -1.3 |
| V106W | < -4 |
| V106S | < -4 |
| V106I | 0.141 |
| G111R | -0.927 |
| G111F | -1.46 |
| A122V | < -4 |
| A122K | -0.804 |
| A122I | -0.851 |
| R50V | -0.713 |
| R50P | 0.28 |
| R50L | -0.798 |
| K44V | -0.038 |
| A31Q | < -4 |
| A31D | 0.131 |
| T16G | -1.11 |
| T16Q | 0.492 |
| T16M | 0.981 |
| T16N | 0.114 |
| I123W | -0.682 |
| I123K | 0.452 |
| I123M | -0.349 |
| I123V | < -4 |

| Variant | apparent fitness score (log10) |
| --- | --- |
| I123Q | 0.151 |
| I123P | < -4 |
| I123H | < -4 |
| I123T | < -4 |
| I123F | < -4 |
| A54V | 0.538 |
| A54Y | < -4 |
| A54I | 0.0951 |
| A54W | -0.386 |
| L78A | < -4 |
| L78P | -0.382 |
| L78C | -0.915 |
| L78E | < -4 |
| L78S | < -4 |
| M89S | -0.929 |
| M89Q | -0.775 |
| M89T | 0.0383 |
| M89K | -0.57 |
| V49H | 0.0878 |
| V49I | -0.143 |
| S127E | -1.37 |
| S127D | < -4 |
| S127Y | -0.624 |
| G116A | < -4 |

| Variant | apparent fitness score (log10) |
| --- | --- |
| Q51R | 0.967 |
| Q51F | -1.86 |
| Q51P | 0.803 |
| E103N | 0.481 |
| E103Y | 0.573 |
| E103I | 0.537 |
| K67L | -1.12 |
| K62A | -0.713 |
| K62D | < -4 |
| K62S | -0.767 |
| L113R | -1.29 |
| L113Y | 0.107 |
| L113H | -0.641 |
| L113A | -1.43 |
| E64M | < -4 |
| E64F | -1.3 |
| E64I | -0.888 |
| V65I | 0.227 |
| V65H | < -4 |
| V65N | -0.805 |
| N99S | -0.554 |
| N99D | 0.058 |
| S24K | -0.346 |
| G74V | 0.931 |

| Variant | apparent fitness score (log10) |
| --- | --- |
| G74M | 0.263 |
| G74A | 0.418 |
| G74D | 0.82 |
| E90M | 0.792 |
| E90W | 0.556 |
| V19I | 0.931 |
| V19K | -0.543 |
| V19W | -1.32 |
| V19P | -0.646 |
| V19G | -0.649 |
| V9I | 0.712 |
| V9Y | -0.963 |
| V9S | -0.419 |
| P118N | < -4 |
| P118S | -0.241 |
| P118C | -0.663 |
| V30H | < -4 |
| V30E | -0.119 |
| C102W | -0.694 |
| C102P | < -4 |
| C102T | < -4 |
| N56I | -0.833 |
| N56Y | -0.538 |
| S48E | < -4 |

| Variant | apparent fitness score (log10) |
| --- | --- |
| S48M | < -4 |
| R57P | -1.34 |
| R57K | -1.31 |
| R57I | -0.238 |
| R57N | < -4 |
| R57L | -0.818 |
| D12P | -1.24 |
| D12E | 0.658 |
| D12S | -0.609 |
| D12Y | -0.243 |
| P94K | -0.354 |
| P94I | -1.27 |
| P94R | -0.916 |
| G29C | 0.234 |
| G29F | < -4 |
| G29S | -1.09 |
| G14Y | -0.528 |
| G14P | -1.47 |
| V63T | 0.112 |
| V63W | < -4 |
| V63D | -1.04 |
| V63E | -1.46 |
| G15N | < -4 |
| E77H | 0.349 |

| Variant | apparent fitness score (log10) |
| --- | --- |
| E77G | 0.525 |
| V21F | < -4 |
| V21I | < -4 |
| N117Y | -0.817 |
| N117I | -0.771 |
| N117G | -1.09 |
| Y43E | < -4 |
| Y43S | < -4 |
| P66A | -1.34 |
| P66R | -1.41 |
| M109E | -1.48 |
| M109K | -0.71 |
| M109S | -0.921 |
| M109C | 0.81 |
| M109T | -0.121 |
| A42W | -1.11 |
| A42Y | < -4 |
| A42G | -0.206 |
| D18L | -1.5 |
| D18R | -1.56 |
| P79K | < -4 |
| P79T | 0.214 |
| P79A | < -4 |
| G75V | -0.797 |

| Variant | apparent fitness score (log10) |
| --- | --- |
| G75Q | -0.236 |
| G75R | -0.422 |
| A82H | -0.775 |
| A82L | -1.46 |
| A82E | -0.693 |
| N25A | -1.3 |
| W33P | -0.584 |
| W33V | < -4 |
| W33Y | -0.243 |
| T46N | < -4 |
| T46S | -0.788 |
| C47S | -0.636 |
| C47K | < -4 |
| P120Y | < -4 |
| P120F | -0.749 |
| P120L | -1.73 |
| P120N | < -4 |
| P120W | -1.3 |
| S121G | 0.776 |
| S121P | < -4 |
| S121H | -0.643 |
| Q41T | -0.244 |
| Q41V | -1.36 |
| S36I | < -4 |

| Variant | apparent fitness score (log10) |
| --- | --- |
| S36W | -0.586 |
| S36Q | 0.692 |
| G128V | < -4 |
| G128I | < -4 |
| G128K | < -4 |
| Q110Y | < -4 |
| Q110D | < -4 |
| A81L | < -4 |
| A81N | -0.292 |
| D115T | 1.04 |
| T72Q | 0.359 |
| S38R | -0.625 |
| S38Y | < -4 |
| S38D | < -4 |
| I119V | 0.658 |
| I119S | -1.6 |
| I119M | < -4 |
| I119R | -1.51 |
| I119F | -0.684 |
| I119Q | -0.773 |
| I119W | < -4 |
| N37S | 0.743 |
| N37C | -1.2 |
| N37M | 0.0688 |

| Variant | apparent fitness score (log10) |
| --- | --- |
| F5P | -0.657 |
| F5V | -0.417 |
| F5K | -1.85 |
| F5D | < -4 |
| N88E | -0.634 |
| N13Y | 0.466 |
| N13R | 0.483 |
| N13C | 0.474 |
| I95T | -0.825 |
| I95W | -0.849 |
| I95G | -1.46 |
| T92V | 0.395 |
| T92A | 0.159 |
| T92P | < -4 |
| I93E | -1.72 |
| F96I | < -4 |
| F96R | -1.52 |
| K107Y | -0.381 |
| K107L | -0.438 |
| K107T | < -4 |
| A108R | -0.506 |
| A108W | < -4 |
